According to PubChem BioAssay AID485281 (National Center for Advancing Translational Sciences (NCATS), 2010):
Screen size: about 350,000 compounds; about 260 (0.074%) were called active. Inconclusive means that the source gave no clear call. Such entries were picked first, then a sample of the others. Calls follow the shape of the dose curve; as a rule, active = well fitted inhibition curve with a large enough effect; inconclusive = small, poorly fitted or top-dose-only effect; inactive = no such curve, though single readings can be large or run the other way. A potency beside an inconclusive call is a rough fit, not a confirmed value.
% is scaled to controls: 0 for no effect and ±100 for the full control effect; potency is read from the fitted curve at half-maximal effect; tags tell the direction and shape of the fitted curve.
Also: nearly all actives have a fitted effect of over 20% in size.

Each molecule was assayed against Ferritin light chain (Equus caballus) (UniProt P02791) (assay: qHTS Assay for Identification of Novel General Anesthetics). Conditions: apoferritin/1-aminoanthracene competitive binding, fluorescence; activity change, negative = displacement: at 77.5 µM (top of the series).
Sequence of UniProt P02791 (P02791 whole entry, looked up): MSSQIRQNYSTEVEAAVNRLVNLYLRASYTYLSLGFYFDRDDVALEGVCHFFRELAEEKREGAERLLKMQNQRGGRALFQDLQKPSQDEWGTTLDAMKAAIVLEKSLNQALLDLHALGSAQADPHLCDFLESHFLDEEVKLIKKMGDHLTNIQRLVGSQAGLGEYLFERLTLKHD
Outline: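 Probe: 1-aminoanthracene (50% saturated, PBS). Protein: horse-spleen apoferritin, 10 uM. Incubation: 10 min, room temperature. Detection: 380 nm excitation, 535 nm emission. Analysis: normalized response, four-parameter Hill.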
In the case of `O=Cc1c(OCc2ccccc2)ccc2ccccc12`, the Potency is reported as inconclusive: 15.8 µM [inhibitor, partial curve].
In the case of `Cc1cccc(-n2ncc(C(=O)N3CCN(c4ccc(Cl)cc4)CC3)c2C2CCN(C(=O)OC(C)(C)C)CC2)c1`, the Potency is reported as inconclusive: 10 µM [inhibitor, single point].
For `COc1cccc(NC(=O)NCCCSC2CCCCC2)c1`, the Potency was inconclusive: 17.8 µM [inhibitor, partial curve].
For `COc1ccc(CCC(=O)OCC(=O)c2ccc(C)cc2)cc1`, the Potency was inconclusive: 20 µM [inhibitor, partial curve].
With `c1cncc(-c2csc(-c3cccnc3)n2)c1` the “activity change, negative = displacement” value was inactive: -10.8%.
For `Cc1ccc(OCCCC(=O)NC(C)c2ccccc2)cc1` (centres undefined), the Potency was inconclusive: 35.5 µM [inhibitor, partial curve].
In the case of `COc1ccccc1CNC(=O)COC(=O)c1n[nH]c2ccccc12`, the Potency is reported as inconclusive: 17.8 µM [inhibitor, partial curve].
For `Cc1cc(C)n(-c2ccc(C(=O)OCC(=O)NCc3ccco3)cc2)n1`, the Potency was inconclusive: 14.1 µM [inhibitor, partial curve].
In the case of `COc1ccc(N2CCN(C(=O)Cc3ccc(OC)c(OC)c3)CC2)cc1`, the “activity change, negative = displacement” value is reported as inactive: -4.51%.
`CCOC(=O)Cc1csc(NC(=O)COc2ccc3c(C)cc(=O)oc3c2)n1` was tested, and the Potency was inconclusive: 20 µM [inhibitor, partial curve].
With `CCCCn1c(-c2csc3c2CCC(C)C3)n[nH]c1=S` (centres undefined) the Potency was inconclusive: 31.6 µM [inhibitor, partial curve].
For `CCCc1cc(=O)n(-c2nc3ccccc3s2)[nH]1`, the “activity change, negative = displacement” value was inactive: -0.238%.
`COc1ccc(NC(=O)C(C)n2nc(-c3ccc(C)c(C)c3)ccc2=O)cc1OC` (centres undefined) was tested, and the Potency was inconclusive: 28.2 µM [inhibitor, partial curve].
With `COc1cc(/C=N/n2c(C)nc3ccccc3c2=O)ccc1O` the Potency was inconclusive: 35.5 µM [inhibitor, partial curve].
In the case of `CC(C)C(=O)Nc1ccc(Cc2ccc(NC(=O)C(C)C)c(O)c2)cc1O`, the Potency is reported as inconclusive: 12.6 µM [inhibitor, partial curve].
With `Cc1ccc(F)cc1NC(=O)CCNC(=O)c1ccc([N+](=O)[O-])cc1` the “activity change, negative = displacement” value was inactive: -3.63%.
With `Cc1ccc2c(c1)-c1cc(C)nn1C(c1cc(Br)ccc1O)N2` (centres undefined) the “activity change, negative = displacement” value was inactive: 1.4%.
In the case of `COc1cc(C(=O)NCC(=O)OCC(=O)c2cccc3ccccc23)cc(OC)c1OC`, the Potency is reported as inconclusive: 17.8 µM [inhibitor, partial curve].
For `Cc1ccc(-n2c(SCc3cccc(F)c3)nc3[nH]ncc3c2=O)cc1C`, the Potency was inconclusive: 14.1 µM [inhibitor, partial curve].
For `Cc1ccc(/C=N/c2sc3c(c2C#N)CCCCC3)o1`, the Potency was inconclusive: 28.2 µM [inhibitor, partial curve].
For `CCC(C)N1C(=O)S/C(=C/c2ccc(Sc3nc4ccccc4[nH]3)o2)C1=O` (centres undefined), the Potency was inconclusive: 5.01 µM [inhibitor, partial curve].
With `Cc1ccc(C)c(OCCCCn2ccnc2)c1` the Potency was inconclusive: 22.4 µM [inhibitor, single point].
With `O=C(COc1ccc(Cl)cc1)NNC(=O)c1ccccc1C(=O)O` the Potency was inconclusive: 35.5 µM [inhibitor, partial curve].
In the case of `CCc1ccc(NC(=O)NC2CCCCCCC2)cc1`, the “activity change, negative = displacement” value is reported as inactive: -0.855%.
`NC(=O)C(c1ccc(Cl)cc1)c1ccc(Sc2ccccc2)nn1` (centres undefined) was tested, and the Potency was inconclusive: 20 µM [inhibitor, partial curve].
`O=C(Nc1ccc(-n2ccc(C(F)(F)F)n2)cc1)Nc1cccc(Cl)c1` was tested, and the Potency was inconclusive: 31.6 µM [inhibitor, partial curve].
With `N#Cc1c(-c2ccccc2)c(-c2ccccc2)nn(CC(=O)NNC(=O)Nc2ccc(Cl)c(Cl)c2)c1=O` the Potency was inconclusive: 5.62 µM [inhibitor, partial curve].
In the case of `COc1ccc(-c2cc(C)no2)cc1S(=O)(=O)N1CCOc2ccccc21`, the Potency is reported as “inactive”.
`COc1ccc(-c2cn3c(n2)sc2cc(C(=O)Nc4ccc(C)c(C)c4)ccc23)cc1` was tested, and the Potency was inconclusive: 3.16 µM [inhibitor, partial curve].
With `CC(CC(=O)N1CCc2ccccc21)c1ccccc1` (centres undefined) the Potency was inconclusive: 15.8 µM [inhibitor, partial curve].
In the case of `CCCn1c(NCc2cc(C)ccc2O)nc2ccccc21`, the Potency is reported as inconclusive: 50.1 µM [inhibitor, single point].
In the case of `CC(C)c1ccc(CN2CCSCC2)cc1`, the Potency is reported as inconclusive: 35.5 µM [inhibitor, single point].
In the case of `O=[N+]([O-])c1ccc2nc(C3CCCCC3)[nH]c2c1`, the Potency is reported as inconclusive: 35.5 µM [inhibitor, single point].
In the case of `CC1CC(C)CN(C(=O)Nc2ccc(Br)cc2)C1` (centres undefined), the Potency is reported as inconclusive: 12.6 µM [inhibitor, partial curve].
For `Oc1ccccc1C(=S)N1CCCCC1`, the Potency was inconclusive: 35.5 µM [inhibitor, partial curve].
`OC(COCCC12CC3CC(CC(C3)C1)C2)CN1CCCCC1` (centres undefined) was tested, and the Potency was inconclusive: 31.6 µM [inhibitor, partial curve].
With `COc1cccc(NC(=S)NC(C)c2ccc(OC)c(OC)c2)c1` (centres undefined) the “activity change, negative = displacement” value was inactive: -9.72%.
With `O=C(COC(=O)/C=C/c1ccccc1Cl)NC1CCCCCC1` the Potency was inconclusive: 7.94 µM [inhibitor, full curve].
`CSc1nsc(SCC(=O)Nc2ccc(C(N)=O)cc2)n1` was tested, and the “activity change, negative = displacement” value was inactive: -6.29%.
In the case of `CCN(C(=O)C1CCC(CNS(=O)(=O)c2cccc3nsnc23)CC1)c1ccc(C)c(C)c1` (centres undefined), the Potency is reported as inconclusive: 14.1 µM [inhibitor, partial curve].
`O=C(c1cccs1)N1CCCc2ccccc21` was tested, and the Potency was inconclusive: 31.6 µM [inhibitor, single point].
For `Cc1cc(C(=O)OCn2nnc3ccccc3c2=O)c(C)n1-c1ccccc1`, the Potency was inconclusive: 8.91 µM [inhibitor, partial curve].
With `COC(=O)C1=C(C)N(Cc2ccccc2)C(=O)N[C@H]1c1ccccc1` the Potency was inconclusive: 12.6 µM [inhibitor, partial curve].
For `COc1cccc(-c2ccc(NC(=O)C3CCCN(CCCn4cccn4)C3)cc2)c1` (centres undefined), the Potency was inconclusive: 39.8 µM [inhibitor, partial curve].
With `O=C(c1cc(-c2ccc(Cl)cc2)n(-c2ccc(Cl)cc2)n1)N1CCOCC1` the Potency was inconclusive: 28.2 µM [inhibitor, partial curve].
`NS(=O)(=O)c1ccc(N/N=C/c2cn(-c3ccccc3)nc2-c2cccs2)c([N+](=O)[O-])c1` was tested, and the “activity change, negative = displacement” value was inactive: -9.93%.
With `O=C(N/N=C/c1ccco1)Nc1ccccc1` the “activity change, negative = displacement” value was inactive: -8.43%.
With `O=C(CCC(=O)N1CCOc2ccc(Cl)cc21)NCCCN1CCN(c2ccccc2F)CC1` the Potency was inconclusive: 22.4 µM [inhibitor, partial curve].
In the case of `O=C1COc2ccc(C(=O)COC(=O)CNC(=O)C3CCCCC3)cc2N1`, the Potency is reported as inconclusive: 14.1 µM [inhibitor, partial curve].
`CCOc1ccc(N(C(=O)CNS(=O)(=O)c2ccccc2)C(CC)C(=O)NCc2ccco2)cc1` (centres undefined) was tested, and the Potency was inconclusive: 35.5 µM [inhibitor, partial curve].
With `Cc1nc(C(C)NC(=O)c2cc(COc3ccc(F)c(F)c3)on2)cs1` (centres undefined) the Potency was inconclusive: 35.5 µM [inhibitor, single point].
For `Cc1nc([N+](=O)[O-])c(Br)n1CC(=O)c1ccc2ccccc2c1`, the Potency was inconclusive: 39.8 µM [inhibitor, partial curve].
For `CC(C)c1ccc(NC2CCCN(C(=O)c3ccnc(Cl)c3)C2)cc1` (centres undefined), the “activity change, negative = displacement” value was inactive: -13.6%.
For `c1ccc(CCNc2nc(-c3cccnc3)cs2)cc1`, the “activity change, negative = displacement” value was inactive: -3.24%.
In the case of `Cc1cccc(-c2nc3c(c(SCC(=O)N4CCOCC4)n2)Cc2c(CO)cnc(C)c2O3)c1`, the Potency is reported as inconclusive: 39.8 µM [inhibitor, single point].
For `O=C1CCCC2=C1C(c1ccc(Cl)cc1)N1C(=O)CCSC1=N2` (centres undefined), the “activity change, negative = displacement” value was inactive: 4.61%.
With `COc1ccc(CCNc2cc(C)nc3c(-c4ccc(Cl)cc4)cnn23)cc1OC` the “activity change, negative = displacement” value was inactive: 232%.
For `O=C1C=C(Nc2ccccc2O)c2ccccc2C1=O`, the Potency was inconclusive: 22.4 µM [inhibitor, partial curve].
`COc1cccc(CN2CCC(C(=O)Nc3ccc(Oc4cccnc4)cc3)CC2)c1` was tested, and the Potency was inconclusive: 35.5 µM [inhibitor, partial curve].
With `CCOC(=O)N1CCN(C(=O)COc2ccc3c(c2)C(=O)CC2(CCN(C(C)=O)CC2)O3)CC1` the “activity change, negative = displacement” value was inactive: 183%.
In the case of `Cc1oc2ccc(O)c(CN(C)Cc3ccccc3)c2c1C(=O)Nc1ccccc1`, the “activity change, negative = displacement” value is reported as inactive: -15%.
In the case of `COc1ccc(CNC(=O)c2cc(COc3c(F)cccc3F)on2)cc1OC`, the Potency is reported as inconclusive: 12.6 µM [inhibitor, partial curve].
With `O=S(=O)(NC1CC2CCC1C2)c1ccc(Cl)cc1` (centres undefined) the Potency was inconclusive: 22.4 µM [inhibitor, partial curve].
With `CC1(C(=O)OCC(=O)c2c[nH]c3ccccc23)CC1(Cl)Cl` (centres undefined) the Potency was inconclusive: 20 µM [inhibitor, partial curve].
For `CCN(CC)S(=O)(=O)c1ccc(NC(=O)CSc2ncnc3ccccc23)cc1`, the Potency was inconclusive: 31.6 µM [inhibitor, partial curve].
For `COc1cc(C(=S)N2CCCCC2)ccc1O`, the Potency was inconclusive: 31.6 µM [inhibitor, partial curve].
In the case of `O=C(N/N=C\c1ccc(Cl)cc1Cl)c1sccc1-n1cccc1`, the Potency is reported as inconclusive: 28.2 µM [inhibitor, partial curve].
For `CCN(CC)CCOC(=O)c1ccc(NC(=O)C2(c3ccccc3)CCCC2)cc1`, the Potency was inconclusive: 14.1 µM [inhibitor, partial curve].
`C/C(=N/NC(=O)CNC(=O)c1ccc2c(c1)OCO2)c1ccc2c(c1)CCCC2` was tested, and the Potency was inconclusive: 50.1 µM [inhibitor, single point].
